Source: article PMC9805134
Results are given in words; binding and its absence hold for the method and conditions named. In cells and extracts the contact can be indirect. Some binding calls cover weakened binding; strength is not graded here. One block for each substance: values may come before it.

Protein sequences, listed by entry. Tags and fused reporters are not part of them. Lines headed by an entry give the natural chain unless they say otherwise; changes in a name come on top. Chains listed by the source or under a name are the forms on record and can include a tag or linker.
UniProt P15056: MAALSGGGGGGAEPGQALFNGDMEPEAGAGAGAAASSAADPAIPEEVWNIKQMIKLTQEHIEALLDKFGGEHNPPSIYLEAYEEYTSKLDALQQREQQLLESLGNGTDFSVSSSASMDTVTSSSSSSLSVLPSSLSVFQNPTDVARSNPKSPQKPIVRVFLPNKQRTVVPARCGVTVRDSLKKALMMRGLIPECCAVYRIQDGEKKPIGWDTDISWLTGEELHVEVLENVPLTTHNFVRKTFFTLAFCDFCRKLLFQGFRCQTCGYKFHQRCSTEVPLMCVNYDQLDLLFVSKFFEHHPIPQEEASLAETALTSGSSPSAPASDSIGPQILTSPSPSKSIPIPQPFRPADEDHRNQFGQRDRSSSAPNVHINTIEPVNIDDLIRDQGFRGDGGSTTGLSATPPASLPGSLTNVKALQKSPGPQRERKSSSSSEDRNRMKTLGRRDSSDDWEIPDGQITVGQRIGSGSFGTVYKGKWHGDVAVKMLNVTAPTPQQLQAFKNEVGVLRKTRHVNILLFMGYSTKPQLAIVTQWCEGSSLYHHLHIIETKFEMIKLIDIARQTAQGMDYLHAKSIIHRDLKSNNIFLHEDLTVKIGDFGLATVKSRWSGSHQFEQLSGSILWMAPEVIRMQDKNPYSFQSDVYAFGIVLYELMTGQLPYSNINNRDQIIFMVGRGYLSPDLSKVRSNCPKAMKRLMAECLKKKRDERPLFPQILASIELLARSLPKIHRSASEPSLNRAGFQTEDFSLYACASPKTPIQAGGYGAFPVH
BRAF-ΔSBC mutant (P15056, form named): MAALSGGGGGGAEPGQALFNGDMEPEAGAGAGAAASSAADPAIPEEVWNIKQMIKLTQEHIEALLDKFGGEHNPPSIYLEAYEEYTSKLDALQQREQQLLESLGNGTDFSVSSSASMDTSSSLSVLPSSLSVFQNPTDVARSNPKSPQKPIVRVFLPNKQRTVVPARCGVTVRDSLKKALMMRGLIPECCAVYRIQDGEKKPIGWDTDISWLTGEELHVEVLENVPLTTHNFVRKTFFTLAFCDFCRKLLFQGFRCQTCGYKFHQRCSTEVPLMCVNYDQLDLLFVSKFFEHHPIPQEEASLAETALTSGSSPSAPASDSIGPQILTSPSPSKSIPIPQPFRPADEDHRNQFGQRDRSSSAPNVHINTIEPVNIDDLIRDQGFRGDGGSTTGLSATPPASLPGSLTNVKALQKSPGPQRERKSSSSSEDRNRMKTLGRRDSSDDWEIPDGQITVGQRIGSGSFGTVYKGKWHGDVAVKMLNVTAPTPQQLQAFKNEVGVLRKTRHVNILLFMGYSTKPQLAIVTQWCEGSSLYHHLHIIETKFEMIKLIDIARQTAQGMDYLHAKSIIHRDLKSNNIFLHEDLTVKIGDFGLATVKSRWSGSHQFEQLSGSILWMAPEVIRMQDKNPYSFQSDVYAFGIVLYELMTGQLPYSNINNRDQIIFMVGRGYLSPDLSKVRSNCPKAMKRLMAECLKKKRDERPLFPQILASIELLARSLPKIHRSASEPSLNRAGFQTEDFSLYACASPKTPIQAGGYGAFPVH
UniProt O43791: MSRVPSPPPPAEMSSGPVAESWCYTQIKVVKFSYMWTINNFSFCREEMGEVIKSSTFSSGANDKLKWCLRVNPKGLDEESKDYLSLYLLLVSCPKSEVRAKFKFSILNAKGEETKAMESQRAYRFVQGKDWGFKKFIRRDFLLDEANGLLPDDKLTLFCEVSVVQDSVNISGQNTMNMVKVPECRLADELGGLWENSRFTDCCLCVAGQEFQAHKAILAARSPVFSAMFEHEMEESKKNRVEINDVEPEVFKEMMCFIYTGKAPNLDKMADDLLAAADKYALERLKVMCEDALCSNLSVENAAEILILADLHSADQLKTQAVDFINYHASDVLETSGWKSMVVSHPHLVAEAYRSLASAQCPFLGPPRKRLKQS

Columns and labels:
[1] = target: BRAF, wild type, ectopically expressed (human) (UniProt P15056); test: co-IP; 293T cells transfected with the indicated plasmids; co-IP with anti-FLAG antibody from whole-cell lysates, Western blot
[2] = target: BRAF-ΔSBC mutant (human) (UniProt P15056); test: as above
[3] = target: BRAF, endogenous in Ishikawa cells (human (endogenous in Ishikawa)) (UniProt P15056); test: co-IP; endogenous proteins; cell extracts of Ishikawa cells; co-IP with IgG, anti-SPOP or anti-BRAF antibody, Western blot
[4] = target: Speckle-type BTB/POZ protein (SPOP), wild type, ectopically expressed (UniProt O43791); test: co-IP; 293T cells transfected with the indicated plasmids; co-IP with anti-FLAG antibody from whole-cell lysates, Western blot
[5] = target: SPOP, endogenous in Ishikawa cells (human (endogenous in Ishikawa)) (UniProt O43791); test: co-IP; endogenous proteins; cell extracts of Ishikawa cells; co-IP with IgG, anti-SPOP or anti-BRAF antibody, Western blot

binding [1]: binds
binding [2]: no binding
Substance: Speckle-type BTB/POZ protein (SPOP), wild type, ectopically expressed (from UniProt O43791 1-374)

binding [3]: binds
Substance: SPOP, endogenous in Ishikawa cells (from UniProt O43791 1-374)

binding [1]: binds
Substance: SPOP-Y87C mutant (from UniProt O43791 1-374)

binding [4]: binds
Substance: BRAF, wild type, ectopically expressed (from UniProt P15056 1-766)

binding [5]: binds
Substance: BRAF, endogenous in Ishikawa cells (from UniProt P15056 1-766)
